Assay results from the supplement of paper PMC8285479.
Structures can show the parent of a compound that is named as a salt. ± gives the standard deviation of the averaged measurements. Over roughly 1,900 compounds, “normalised cell viability (NPI; 0 = phenylarsine oxide control, 1 = DMSO control)” has its median near 1; the lowest 2% begin near 0.039. This is one part of the list.

Test system: NCI-H1944
Assay: normalised cell viability (NPI; 0 = phenylarsine oxide control, 1 = DMSO control) (fraction of DMSO control); NCI-H1944 is a non-small cell lung cancer line; higher = more viable cells (less compound toxicity)
Settings: 6 days
[1] = glucocorticoid arm: hydrocortisone 2.75 uM co-treatment, compound 1 µM
[2] = glucocorticoid arm: hydrocortisone 2.75 uM co-treatment, compound 5 µM
[3] = glucocorticoid arm: hydrocortisone 2.75 uM pre-treated 2 days and continued, compound 1 µM
[4] = glucocorticoid arm: hydrocortisone 2.75 uM pre-treated 2 days and continued, compound 5 µM
[5] = glucocorticoid arm: vehicle, compound 1 µM
[6] = glucocorticoid arm: vehicle, compound 5 µM
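Note: CTB read-out in 384-well plates, mean of triplicate wells, normalised per plate against 1 µM phenylarsine oxide and 0.1% DMSO, compounds added 24 h after seeding.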

SMILES	normalised cell viability [1]	normalised cell viability [2]	normalised cell viability [3]	normalised cell viability [4]	normalised cell viability [5]	normalised cell viability [6]
CC(C)[C@@]1(NC(=O)[C@@H]2C[C@@H]3c4cccc5[nH]cc(c45)C[C@H]3N(C)C2)O[C@@]2(O)[C@@H]3CCCN3C(=O)[C@H](Cc3ccccc3)N2C1=O [Dihydroergocristine methanesulfonate]	0.9953 ± 0.0081	0.978 ± 0.019	0.9933 ± 0.0059	1.03 ± 0.011	0.9913 ± 0.0076	0.9997 ± 0.0093
CN1CCC(c2c[nH]c3ccc(O)cc23)CC1					1.01	
CC1Cc2cc3c(cc2C(c2ccc(N)cc2)=NN1)OCO3 (stereo not given)	1.01 ± 0.01	1.02 ± 0.021	1.01	1.01 ± 0.037	0.9943 ± 0.0035	0.9943 ± 0.006
NC(=O)c1ccc(OCC(O)CN2CC=C(c3ccc(F)cc3)CC2)cc1 (stereo not given)	0.979 ± 0.011	0.952 ± 0.011	0.999 ± 0.011	0.955 ± 0.022	0.986 ± 0.0027	0.984 ± 0.0072
C[N+](C)(C)CC#CCN1CCCC1=O [Oxotremorine methiodide]	1.033 ± 0.0058	1.03 ± 0.021	1.017 ± 0.0058	1.04 ± 0.056	1.003 ± 0.0058	1.02 ± 0.015
COc1ccc(CNC(=O)/C=C/c2ccc3[nH]cc(CCN(C)C)c3c2)cc1	1.003 ± 0.0061	1.02 ± 0.011	1.003 ± 0.0058	1.01 ± 0.014	0.9943 ± 0.0049	0.996 ± 0.0036
NC(=O)CN1CC(O)CC1=O (stereo not given) [Oxiracetam]	1.004 ± 0.0098	1.01 ± 0.035	1.01 ± 0.01	1.05 ± 0.07	0.9897 ± 0.0042	0.9997 ± 0.0091
C[N+]1(C)CCN(c2ccccc2)CC1 [1,1-Dimethyl-4-phenyl-piperazinium iodide]	1.001 ± 0.009	1.001 ± 0.0081	1.01 ± 0.016	1.01 ± 0.011	0.9977 ± 0.004	1.003 ± 0.0058
C[C@H](Cc1ccc2c(c1)OC(C(=O)O)(C(=O)O)O2)NC[C@H](O)c1cccc(Cl)c1	0.9927 ± 0.0067	1.005 ± 0.0092	0.9937 ± 0.004	1 ± 0.022	0.985 ± 0.0085	0.9877 ± 0.0059
CCCN1CCC[C@H](c2cccc(O)c2)C1 [R(+)-3PPP hydrochloride]	0.968 ± 0.01	0.936 ± 0.012	0.998 ± 0.02	0.962 ± 0.011	0.968 ± 0.0035	0.9747 ± 0.0071
NC(=O)COc1c(F)cc(SCCNS(=O)(=O)c2ccccc2)cc1F	1.002 ± 0.0076	1.02 ± 0.023	0.988 ± 0.016	1.03 ± 0.021	1	1.01 ± 0.015
CCN(C)C(=O)Oc1cccc([C@H](C)N(C)C)c1 [Rivastigmine Tartrate]	1.005 ± 0.0092	1.043 ± 0.0058	1.01 ± 0.014	1.02 ± 0.018	1.007 ± 0.0058	0.992 ± 0.007
CN(C)C(=O)Oc1cc(OC(=O)N(C)C)cc(C(O)CNC(C)(C)C)c1 (stereo not given) [Bambuterol HCl]	0.986 ± 0.014	0.982 ± 0.015	1 ± 0.024	0.968 ± 0.02	0.982 ± 0.0087	0.999 ± 0.011
CN(C(=O)Cc1ccc(Cl)c(Cl)c1)C(CN1CCCC1)c1cccc(OCC(=O)O)c1 (stereo not given) [ICI 204,448 hydrochloride]	1.007 ± 0.0058	1.02 ± 0.024	1.01	1.04 ± 0.076	0.997 ± 0.0027	1 ± 0.014
NCCc1ccc(O)cc1 [4-Hydroxyphenethylamine hydrochloride]	0.9857 ± 0.0021	1.01	0.831 ± 0.31	0.9977 ± 0.004	0.995	0.991 ± 0.0046
C[N+]1(C)[C@@H]2C[C@@H](OC(=O)[C@H](CO)c3ccccc3)C[C@H]1[C@@H]1O[C@@H]12 [(-)-Scopolamine methyl bromide]	1.01 ± 0.013	1.01 ± 0.023	1.01 ± 0.027	1.01 ± 0.023	1.01 ± 0.01	1.017 ± 0.0058
C[N+]1(C)[C@@H]2C[C@@H](OC(=O)[C@H](CO)c3ccccc3)C[C@H]1[C@@H]1O[C@@H]12 [Methscopolamine]	1.02 ± 0.01	1 ± 0.019	1.03 ± 0.02	0.988 ± 0.028	1.01 ± 0.011	0.9967 ± 0.0049
CCn1cc(C(=O)O)c(=O)c2cc3c(cc21)OCO3 [Oxolinic acid]	1.007 ± 0.0058	1.02 ± 0.015	1.007 ± 0.0058	1.05 ± 0.076	1.01	1.02 ± 0.017
NCC(O)c1ccc(O)cc1 (racemic) [(±)-Octopamine hydrochloride]	1.01 ± 0.014	1.02 ± 0.02	1.01 ± 0.011	1.05 ± 0.079	0.9943 ± 0.0025	0.9977 ± 0.004
C[C@@H]1O[C@@H](O[C@H]2C[C@@H](O)[C@]3(CO)[C@H]4[C@H](O)C[C@]5(C)[C@@H](C6=CC(=O)OC6)CC[C@]5(O)[C@@H]4CC[C@]3(O)C2)[C@H](O)[C@H](O)[C@H]1O [Ouabain]	0.00947 ± 0.006	0.00628 ± 0.0019	0.0931 ± 0.013	0.07 ± 0.028	0.00711 ± 0.0021	0.00424 ± 0.002
Clc1cc(I)cc(Cl)c1NC1=NCCN1 [p-Iodoclonidine hydrochloride]	0.998 ± 0.011	0.969 ± 0.039	0.994 ± 0.018	1.02 ± 0.07	0.967 ± 0.0053	0.98 ± 0.013
C[C@@H](N)Cc1cnc[nH]1 [Histamine, R(-)-alpha-methyl-, dihydrochloride]	0.997 ± 0.0027	0.997 ± 0.011	1	0.994 ± 0.014	0.9917 ± 0.0045	0.9963 ± 0.0032
C[C@H]1O[C@@H](C[N+](C)(C)C)CS1	1.013 ± 0.0058	1.007 ± 0.0058	1	1 ± 0.024	0.9857 ± 0.0046	0.9857 ± 0.0038
Cc1nccc2c1[nH]c1ccccc12 [Harmane]	1.007 ± 0.0058	0.97 ± 0.026	1 ± 0.013	0.986 ± 0.01	1.01 ± 0.012	1.003 ± 0.0058
CCCN1CCc2cccc3c2[C@H]1Cc1ccc(O)c(O)c1-3 [R(-)-Propylnorapomorphine hydrochloride]	0.9857 ± 0.0063	0.987 ± 0.018	0.984 ± 0.027	0.971 ± 0.0087	0.988 ± 0.0027	0.981 ± 0.0076
